Values joined by “and” are separate entries in the source; they are usually repeats but may differ in a detail not shown here. Equal values may be shown once.
Columns and labels:
[1] = system: Bacteroides ovatus GUS (BoGUS); test: In vitro DCF-G processing assay (UPLC); assay type: biochemical; conditions: DCF-G as substrate, 400 µM; pH 5.0; 37 °C
[2] = system: Parabacteroides merdae GUS (PmGUS); test: In vitro DCF-G processing assay (UPLC); assay type: biochemical; conditions: DCF-G as substrate, 400 µM; pH 5.5; 37 °C
[3] = system: Parabacteroides merdae GUS (PmGUS); conditions: pNPG as substrate; optimal pH 5.5; 37 °C

Structure (SMILES)	Apparent kcat [1] [s⁻¹]	Apparent kcat [2]	Km [3] [µM]	kcat [3]
O=C(Cc1ccccc1Nc1c(Cl)cccc1Cl)O[C@@H]1O[C@H](C(=O)O)[C@@H](O)[C@H](O)[C@H]1O [DCF-G, Diclofenac acyl β-D-glucuronide]	1.64 ± 0.04	0.034 s⁻¹ and 0.034 ± 0.001 s⁻¹		
O=C(O)[C@H]1O[C@@H](Oc2ccc([N+](=O)[O-])cc2)[C@H](O)[C@@H](O)[C@@H]1O [pNPG, p-nitrophenol-β-D-glucuronide]			2400 ± 70	0.088 s⁻¹ and 0.088 ± 0.001 s⁻¹
